Measurements: PubChem BioAssay AID1508623 (National Center for Advancing Translational Sciences (NCATS), 2021)
Screen size: about 48,000 compounds; about 450 (0.94%) were called active. Not shown: some 19% with an inconclusive outcome. The call rests on the fitted dose curve; in most records, active means well fitted inhibition curve with a large enough effect; inconclusive means small, poorly fitted or top-dose-only effect; inactive means no such curve, though single readings can be large or run the other way. Some of the results follow.

experiment: Primary qHTS for Identification of Small Molecule Inhibitors of Huntingtin Promoter Activity; settings: HEK293 HTT promoter firefly luciferase reporter (activity 0% = vehicle and -100% = no light), 24 h; series mostly up to 57.5 µM; activity change, negative = inhibition: at the top concentration; further: nearly all actives have a fitted effect of over 50% in size
In short: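 Quantitative HTS used concentration series of up to 57.5 uM final on HEK293 luciferase reporter cells, 24 h at 37 degrees C. Readout was Dual-Glo firefly luminescence.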
Potency means the concentration at half of the fitted maximal effect.

| Compound | activity change, negative = inhibition | Potency |
| --- | --- | --- |
| Cc1nn(C)c(C)c1S(=O)(=O)N(CC(=O)NCCc1ccccc1)c1ccc(C(C)C)cc1 | inactive: 2.82% |  |
| Cc1ccc(C(=O)c2cn(Cc3cccc(Cl)c3)c3nc(C)ccc3c2=O)cc1 | inactive: -22.7% |  |
| O=C(CSCc1ccc(F)cc1)N1CCN(c2ccccc2F)CC1 | inactive: 1.83% |  |
| Cc1cc2c(cc1S(=O)(=O)NCc1ccc(F)cc1)n(C)c(=O)c(=O)n2C | inactive: -9.16% |  |
| Cc1cccc(N2C(=O)CC(c3ccc(F)cc3)C3=C2COC3=O)c1 (configuration not stated) | inactive: 0% |  |
| Cc1cn2c(=O)cc(COC(=O)c3ccc(NC(=O)COc4ccccc4C)cc3)nc2s1 | inactive: -19.7% |  |
| CCOC(=O)c1cc(-c2ccccc2)n(-c2cccc(C(=O)Nc3cccc(SC)c3)c2)c1C | inactive: -20.6% |  |
| CN1C(=O)C(Cc2c[nH]c3ccccc23)NC1=S (configuration not stated) | inactive: 13.6% |  |
| COc1ccc(CCC(=O)NCCc2csc(-c3ccc(F)cc3)n2)cc1 | inactive: -6.13% |  |
| COc1ccc(OC)c(NC(=O)CSc2nc(=O)n(CCN(C)C)c3c2CCC3)c1 | inactive: -13.4% |  |
| COc1cc(NC(=O)CC2C(=O)N(c3ccccc3)C(=O)N2Cc2ccc(F)cc2)cc(OC)c1 (configuration not stated) | inactive: -13.6% |  |
| CCc1ccccc1NC(=O)N1CCOc2ccccc21 | inactive: -16.1% |  |
| O=C(Cn1ncc2c([nH]c3ccccc32)c1=O)NCCCN1CCN(c2ccc(F)cc2)CC1 | inactive: -6.68% |  |
| CCc1ccc(-n2c(=O)c3c4c(sc3n(Cc3ccccc3C#N)c2=O)CCCC4)cc1 | inactive: 15.3% |  |
| CCCn1c2ccccc2c2cnn(CC(=O)Nc3cc(C)c(Cl)cc3OC)c(=O)c21 | inactive: -9.73% |  |
| CC1CCc2c(sc(NC(=O)Cc3ccccc3)c2C(=O)Nc2ccc(Cl)cc2)C1 (configuration not stated) | inactive: -19% |  |
| Cc1cc(Nc2ccccc2F)n2nc(-c3ccccc3)nc2n1 | inactive: -15.5% |  |
| COC(=O)c1ccc(Cl)cc1NC(=O)N1CC2CCCN2c2ccccc21 (configuration not stated) | inactive: -32.5% |  |
| COc1ccc(S(=O)(=O)NCc2ccc3c(c2)CCN3C(=O)c2ccccc2)cc1OC | inactive: -26.6% |  |
| COc1ccc(NC(=O)CN2C(=O)CCn3nc(-c4cccn4C)cc32)cc1 | inactive: 0% |  |
| Cc1cc(C)c(Nc2nc3ccccc3n3c(C)nnc23)c(C)c1 | inactive: -7.11% |  |

| Compound | activity change, negative = inhibition | Potency |
| --- | --- | --- |
| COc1ccccc1OCCn1c(NC(=O)c2ccccc2Cl)nc2ccccc21 | inactive: -31.7% |  |
| Cc1ccc(NC(=O)C(=O)NCC(c2cccnc2)N2CCN(Cc3ccccc3)CC2)cc1C (configuration not stated) | inactive: -27.4% |  |
| COc1cccc(CNC(=O)C2CCC(CNS(=O)(=O)c3ccc4c(c3)CCCC(=O)N4)CC2)c1 (configuration not stated) | inactive: -1.65% |  |
| Cc1ccc(NC(=O)CSc2nnc3scc(-c4ccc(Cl)cc4)n23)cc1 | inactive: -26% |  |
| CCN(CC)CCCNc1oc(/C=C/c2ccc(OC)c(OC)c2)nc1C#N | inactive: -17.1% |  |
| COc1ccc(NC(=O)Cn2cc(S(=O)(=O)N3CCN(c4ccccc4F)CC3)c3ccccc3c2=O)cc1Cl | inactive: -19.5% |  |
| CCOc1ccc(-c2cc(C(=O)N3CCN(c4cc(Cl)ccc4C)CC3)c3ccccc3n2)cc1 | inactive: -16.1% |  |
| CNc1c(NC(=O)c2ccc(OC)c(OC)c2)c(=O)oc2ccccc12 | inactive: 6.21% |  |
| CN(C)c1nc(Cc2ccc(NC(=O)c3ccc(C(F)(F)F)cc3)cc2)nc(N(C)C)c1CC(=O)O | inactive: 0.739% |  |
| Cc1cc2c(cc1S(=O)(=O)CCC(=O)N1CCC(C)CC1)OCC(=O)N2 | inactive: -5.82% |  |
| CCc1ccc(C(=O)c2cn(CC(=O)Nc3ccc4c(c3)OCO4)c3ccc(CC)cc3c2=O)cc1 | inactive: -17.8% |  |
| Cc1cc(C)cc(NC(=O)NCCc2c(C)nn(C)c2C)c1 | inactive: -20.5% |  |
| CCC(Cn1nnc2ccccc2c1=O)NC(=O)Nc1cc(C)cc(C)c1 (configuration not stated) | inactive: -10.7% |  |
| CC(C)C(=O)Nc1nnc2n1CCS2 | inactive: -4.16% |  |
| Cc1nc(N2CCCC2)c2c(C(=O)N3CCN(c4ccccc4)CC3)c(C)oc2n1 | inactive: -3.9% |  |
| Cc1cc2c(n1-c1ccc(C(=O)NCCc3ccc(Cl)cc3)cc1)CCCC2 | inactive: 14.7% |  |
| CCOc1cc2sc(N3CCC(C(=O)Nc4ccc(CC)cc4)CC3)nc2cc1Br | inactive: 101% |  |
| CC(=O)N1CCCc2cc(S(=O)(=O)N3CCCC(C(=O)N4CCN(c5cccc(Cl)c5)CC4)C3)ccc21 (configuration not stated) |  | active: 7.08 µM |
| Cc1ccc(C)c(CSc2nnc3[nH]c(=O)cc(C)n23)c1 | inactive: -8.22% |  |
| COc1ccc(C)cc1NC(=O)c1noc2c1CSc1ccccc1-2 | inactive: -14.1% |  |
| COc1ccc(C2C(C(=O)Nc3ccccc3)=C(C)Nc3c(C(=O)Nc4ccccc4)cnn32)cc1 (configuration not stated) | inactive: -0.159% |  |

| Compound | activity change, negative = inhibition | Potency |
| --- | --- | --- |
| COCCNC(=O)CCC(=O)NNc1nc2ccccc2c2nc(C)nn12 | inactive: -13.2% |  |
| Cc1ccc(C)c(N2CCN(C(=O)c3cn(CC(C)C)c(=O)c4c3c3ccccc3n4C)CC2)c1 | inactive: -11.6% |  |
| COc1ccc(Br)cc1C1C(C(=O)Nc2ccc(C)cc2C)=C(C)Nc2ncnn21 (configuration not stated) | inactive: -12.5% |  |
| Cc1ccc(NC(=O)C2(c3cccs3)CCOCC2)cc1Cl | inactive: -10.9% |  |
| Cc1ccc(C)c(CSc2nc(-c3ccccc3F)nc3c2Cc2c(CO)cnc(C)c2O3)c1 | inactive: -11.1% |  |
| COc1cccc(NC(=O)Cn2nnc(C(=O)NCc3cccs3)c2N)c1 | inactive: -6.21% |  |
| Cc1ccc2c(CNCCc3ccccc3)c(C(=O)O)n(Cc3ccccc3C)c2c1 | inactive: -7.61% |  |
| Cc1cccc(N(C)c2nc3ccccc3c3nnc(C)n23)c1 | inactive: -11% |  |
| CCOc1ccc(C(=O)Cn2c(=O)n3nc(CCn4nc(C)cc4C)nc3c3cc(OC)c(OC)cc32)cc1 | inactive: -18.1% |  |
| Cc1ccccc1N1CCN(S(=O)(=O)c2nnc(NC(=O)c3ccc(C(C)C)cc3)s2)CC1 | inactive: -24.2% |  |
| CCCCCn1c(NCc2ccc(OC)cc2)nc2ccccc21 | inactive: -45.4% |  |
| Cc1ccc(NC(=O)CSc2nnc(-c3ccc([N+](=O)[O-])cc3)o2)c(C)c1 | inactive: 6.67% |  |
| Cc1ccc(C(=O)c2cn(CC(=O)Nc3ccc(C(C)C)cc3)c3nc(C)ccc3c2=O)cc1 | inactive: 7.59% |  |
| Cc1cc(C)n(-c2nc3ccccc3nc2Nc2ccc(N(C)C)cc2)n1 | inactive: -4.65% |  |
| COc1ccc(-n2nc(C(=O)Nc3ccccn3)c3c4ccccc4n(C)c3c2=O)cc1 | inactive: -11.8% |  |
| CCOC(=O)c1ccc(NC(=O)c2cnc3c(-c4ccc(F)cc4)c(C)nn3c2C)cc1 | inactive: -14.2% |  |
| CCOc1ccc(-c2nc3c(c(SCC(=O)Nc4ccccc4C)n2)Cc2ccccc2O3)cc1 | inactive: -10.5% |  |
| Cc1cc(C)cc(NC(=O)Cn2c(-c3cncs3)nc3ccccc32)c1 | inactive: -12.2% |  |
| Cc1ccccc1NC(=O)CC(NCc1cccnc1)C(=O)O (configuration not stated) | inactive: -2.55% |  |
| Cc1ccccc1CNC(=O)c1ccc2c(c1)c(C)c(C)n2C | inactive: 1.86% |  |
